Experimental findings from paper PMC6838200, “Polarisome scaffolder Spa2-mediated macromolecular condensation of Aip5 for actin polymerization” (Nature Communications, 2019) are described below.

The data set deals with the molecule itself. Description: negative-stain TEM; 1 µM purified protein on carbon-coated copper grids, uranyl acetate stain, non-crowding conditions.

B1: Aip5, full length (actin-interacting protein 5) (natural protein)
chain: not shown
notes: Heterogeneous higher-order oligomers; no defined number of copies; also called Aip5-FL; full-length Aip5; source: budding yeast (YMY2043, galactose-induced overexpression), purified (Ni-NTA, Superdex200 SEC)
In the case of B1, the binding result was “binds”.
